Experimental data from PMC6706580.
Residue numbers refer to the chain shown, from its start. Results are given in words; binding and its absence hold for the method and conditions named. For some assays here: Binding seen in cells or lysates may run through a third protein. Some results given as binding are weak or reduced against the parent protein; the word gives no strength. Where a sequence is shown, tags or fusion partners need not be part of it.

Legend:
[1] = target: T1, GTL1N (N-terminal trihelical DNA-binding domain of GT2-LIKE 1) fused with maltose-binding protein (Arabidopsis) (UniProt Q9C882); assay: far-Western, overlay or dot blot; MBP fusion GTL1 proteins separated by SDS-PAGE and transferred to PVDF; 1 µg/ml HRP-AtCaM2 in overlay buffer (50 mM imidazole-HCl pH 7.5, 150 mM NaCl) in the presence of Ca^2+, 1 h; both purified
T1 sequence: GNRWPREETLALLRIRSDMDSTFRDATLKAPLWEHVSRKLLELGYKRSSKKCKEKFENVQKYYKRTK

[2] = target: T1, GTL1N (N-terminal trihelical DNA-binding domain of GT2-LIKE 1) fused with maltose-binding protein (Arabidopsis); assay: far-Western, overlay or dot blot; MBP fusion GTL1 proteins separated by SDS-PAGE and transferred to PVDF; 1 µg/ml HRP-AtCaM2 in overlay buffer (50 mM imidazole-HCl pH 7.5, 150 mM NaCl) in the presence of EGTA, 1 h; both purified
[3] = target: T1, GTL1N (N-terminal trihelical DNA-binding domain of GT2-LIKE 1) fused with maltose-binding protein (Arabidopsis); assay: pull-down; as a1 but with EGTA treatment (Ca^2+ chelated); MBP fusion proteins on amylose resin, in vitro-translated HA-AtCaM2; anti-HA immunoblot; only the target purified
[4] = target: T2, GTL1N[H94E] fused with maltose-binding protein (Arabidopsis) (UniProt Q9C882); assay: pull-down; MBP or MBP fusion proteins immobilised on amylose resin; in vitro-translated HA-AtCaM2 in CaM-binding buffer (50 mM Tris-HCl pH 7.5, 100 mM NaCl, 1% DMSO, 2 mM DTT, 2 mM CaCl2), 4 °C, 2 h; anti-HA immunoblot; only the target purified
T2 sequence: T1 sequence with H35E

[5] = target: T1, GTL1N (N-terminal trihelical DNA-binding domain of GT2-LIKE 1) fused with maltose-binding protein (Arabidopsis); assay: as above

| binding [1] | binding [2] | binding [3] | binding [4] | binding [5] | Substance |
| --- | --- | --- | --- | --- | --- |
| binds | no binding (condition: with EGTA) |  |  |  | AtCaM2 conjugated with horseradish peroxidase (HRP) (from UniProt P0DH97 1-149) |
|  |  | no binding (condition: with EGTA) | no binding | binds | HA-Arabidopsis CaM2 (AtCaM2) (from UniProt P0DH97 1-149) |
